# Measurements taken from the supplement of paper PMC8728848.
# The list shows a part of the results.
# B1: SalT (Orysata sativa) (protein)
# chain: MTLVKIGLWGGNGGSAQDISVPPKKLLGVTIYSSDAIRSIAFNYIGVDGQEYAIGPWGGGEGTSTEIKLGSSEHIKEISGTHGPVYDLADIVTYLKIVTSANNTYEAGVPNGKEFSIPLQDSGHVVGFFGRSGTLIDAIGIYVHPILEQKLISEEDLNSAVDHHHHHH
# Legend:
# Assay in all cases: glycan array binding signal (z-score within array); higher = stronger binding
# Conditions in all cases: glycan notation: IUPAC condensed, linker removed
# [1] = molecular target: Neu5Ac(a2-6)Gal(b1-4)GlcNAc(b1-2)Man(a1-3)[Man(a1-6)]Man(b1-4)GlcNAc(b1-4)GlcNAc
# Outline: (§1)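 The binding signal is a Z-score computed within each array. Data were drawn from 3228 arrays in the Consortium for Functional Glycomics database, restricted to those with a known protein sequence. Scores were averaged over arrays of the same protein sequence at different concentrations or buffers, and over linkers, and negative values can be taken as non-binding.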
# [2] = molecular target: Neu5Ac(a2-6)Gal(b1-4)GlcNAc(b1-2)Man(a1-3)[Neu5Ac(a2-6)Gal(b1-4)GlcNAc(b1-2)Man(a1-6)]Man(b1-4)GlcNAc(b1-4)GlcNAc
# Outline: as §1
# [3] = molecular target: Neu5Ac(a2-6)Gal(b1-4)GlcNAc(b1-2)Man(a1-3)[Neu5Ac(a2-6)Gal(b1-4)GlcNAc(b1-2)Man(a1-6)]Man(b1-4)GlcNAc(b1-4)[Fuc(a1-6)]GlcNAc
# Outline: as §1
# [4] = molecular target: Neu5Ac(a2-6)Gal(b1-4)GlcNAc(b1-2)Man(a1-6)Man(b1-4)GlcNAc(b1-4)GlcNAc
# Outline: as §1
# [5] = molecular target: Neu5Ac(a2-6)Gal(b1-4)GlcNAc(b1-2)Man(a1-6)[Gal(b1-4)GlcNAc(b1-2)Man(a1-3)]Man(b1-4)GlcNAc(b1-4)GlcNAc
# Outline: as §1
# [6] = molecular target: Neu5Ac(a2-6)Gal(b1-4)GlcNAc(b1-2)Man(a1-6)[GlcNAc(b1-2)Man(a1-3)]Man(b1-4)GlcNAc(b1-4)GlcNAc
# Outline: as §1
# [7] = molecular target: Neu5Ac(a2-6)Gal(b1-4)GlcNAc(b1-2)Man(a1-6)[Man(a1-3)]Man(b1-4)GlcNAc(b1-4)GlcNAc
# Outline: as §1
# [8] = molecular target: Neu5Ac(a2-6)Gal(b1-4)GlcNAc(b1-3)Gal(b1-3)GlcNAc
# Outline: as §1
# [9] = molecular target: Neu5Ac(a2-6)Gal(b1-4)GlcNAc(b1-3)Gal(b1-4)GlcNAc
# Outline: as §1
# [10] = molecular target: Neu5Ac(a2-6)Gal(b1-4)GlcNAc(b1-3)Gal(b1-4)GlcNAc(b1-3)Gal(b1-4)GlcNAc
# Outline: as §1
# [11] = molecular target: Neu5Ac(a2-6)Gal(b1-4)GlcNAc(b1-3)Gal(b1-4)[Fuc(a1-3)]GlcNAc(b1-3)Gal(b1-4)[Fuc(a1-3)]GlcNAc
# Outline: as §1
# [12] = molecular target: Neu5Ac(a2-6)Gal(b1-4)GlcNAc(b1-3)GalNAc
# Outline: as §1
# [13] = molecular target: Neu5Ac(a2-6)Gal(b1-4)GlcNAc(b1-3)[Neu5Ac(a2-6)Gal(b1-4)GlcNAc(b1-6)]GalNAc
# Outline: as §1
# [14] = molecular target: Neu5Ac(a2-6)Gal(b1-4)GlcNAc(b1-6)GalNAc
# Outline: as §1
# [15] = molecular target: Neu5Ac(a2-6)Gal(b1-4)GlcNAc(b1-6)[Gal(b1-3)GlcNAc(b1-3)]Gal(b1-4)Glc
# Outline: as §1
# [16] = molecular target: Neu5Ac(a2-6)Gal(b1-4)GlcNAc6S
# Outline: as §1
# Neu5Ac(a2-6)GalNAc = molecular target: Neu5Ac(a2-6)GalNAc
# Outline: as §1
# [17] = molecular target: Neu5Ac(a2-6)GalNAc(b1-4)GlcNAc
# Outline: as §1
# [18] = molecular target: Neu5Ac(a2-6)GalNAc(b1-4)GlcNAc6S
# Outline: as §1
# [19] = molecular target: Neu5Ac(a2-6)GlcNAc(b1-4)GlcNAc
# Outline: as §1
# [20] = molecular target: Neu5Ac(a2-6)GlcNAc(b1-4)GlcNAc(b1-4)GlcNAc
# Outline: as §1
# Neu5Ac(a2-8)Neu5Ac = molecular target: Neu5Ac(a2-8)Neu5Ac
# Outline: as §1
# [21] = molecular target: Neu5Ac(a2-8)Neu5Ac(a2-3)Gal(b1-3)GalNAc(b1-4)[Neu5Ac(a2-8)Neu5Ac(a2-3)]Gal(b1-4)Glc
# Outline: as §1
# [22] = molecular target: Neu5Ac(a2-8)Neu5Ac(a2-3)Gal(b1-4)Glc
# Outline: as §1
# [23] = molecular target: Neu5Ac(a2-8)Neu5Ac(a2-3)[Gal(b1-3)GalNAc(b1-4)]Gal(b1-4)Glc
# Outline: as §1
# [24] = molecular target: Neu5Ac(a2-8)Neu5Ac(a2-3)[GalNAc(b1-4)]Gal(b1-4)Glc
# Outline: as §1
# [25] = molecular target: Neu5Ac(a2-8)Neu5Ac(a2-8)Neu5Ac
# Outline: as §1
# [26] = molecular target: Neu5Ac(a2-8)Neu5Ac(a2-8)Neu5Ac(a2-3)Gal(b1-4)Glc
# Outline: as §1
# [27] = molecular target: Neu5Ac(a2-8)Neu5Ac(a2-8)Neu5Ac(a2-3)[GalNAc(b1-4)]Gal(b1-4)Glc
# Outline: as §1
# [28] = molecular target: Neu5Ac(a2-8)Neu5Ac(a2-8)Neu5Ac(a2-8)Neu5Ac(a2-3)[GalNAc(b1-4)]Gal(b1-4)Glc
# Outline: as §1
# [29] = molecular target: Neu5Ac(b2-6)Gal(b1-4)GlcNAc
# Outline: as §1
# Neu5Ac(b2-6)GalNAc = molecular target: Neu5Ac(b2-6)GalNAc
# Outline: as §1
# [30] = molecular target: Neu5Ac9Ac(a2-3)Gal(b1-3)GlcNAc
# Outline: as §1
# [31] = molecular target: Neu5Ac9Ac(a2-3)Gal(b1-4)GlcNAc
# Outline: as §1
# [32] = molecular target: Neu5Ac9Ac(a2-6)Gal(b1-4)GlcNAc
# Outline: as §1
# [33] = molecular target: Neu5Gc(a2-3)Gal(b1-3)GlcNAc
# Outline: as §1
# [34] = molecular target: Neu5Gc(a2-3)Gal(b1-3)[Fuc(a1-4)]GlcNAc
# Outline: as §1
# Neu5Gc(a2-3)Gal(b1-4)Glc = molecular target: Neu5Gc(a2-3)Gal(b1-4)Glc
# Outline: as §1
# [35] = molecular target: Neu5Gc(a2-3)Gal(b1-4)GlcNAc
# Outline: as §1
# [36] = molecular target: Neu5Gc(a2-3)Gal(b1-4)[Fuc(a1-3)]GlcNAc
# Outline: as §1
# [37] = molecular target: Neu5Gc(a2-6)Gal(b1-4)GlcNAc
# Outline: as §1
# Neu5Gc(a2-6)GalNAc = molecular target: Neu5Gc(a2-6)GalNAc
# Outline: as §1
# [38] = molecular target: Neu5Gc(b2-6)Gal(b1-4)GlcNAc
# Outline: as §1
binder,measurement,setting,value
B1,glycan array binding signal (z-score),[1],2.99
same,glycan array binding signal (z-score),[2],2.81
same,glycan array binding signal (z-score),[3],0.435
same,glycan array binding signal (z-score),[4],-0.309
same,glycan array binding signal (z-score),[5],2.52
same,glycan array binding signal (z-score),[6],3.37
same,glycan array binding signal (z-score),[7],4.96
same,glycan array binding signal (z-score),[8],-0.304
same,glycan array binding signal (z-score),[9],-0.306
same,glycan array binding signal (z-score),[10],-0.304
same,glycan array binding signal (z-score),[11],-0.305
same,glycan array binding signal (z-score),[12],-0.296
same,glycan array binding signal (z-score),[13],-0.307
same,glycan array binding signal (z-score),[14],-0.306
same,glycan array binding signal (z-score),[15],-0.309
same,glycan array binding signal (z-score),[16],-0.31
same,glycan array binding signal (z-score),Neu5Ac(a2-6)GalNAc,-0.307
same,glycan array binding signal (z-score),[17],-0.309
same,glycan array binding signal (z-score),[18],-0.303
same,glycan array binding signal (z-score),[19],-0.308
same,glycan array binding signal (z-score),[20],-0.304
same,glycan array binding signal (z-score),Neu5Ac(a2-8)Neu5Ac,-0.308
same,glycan array binding signal (z-score),[21],-0.306
same,glycan array binding signal (z-score),[22],-0.31
same,glycan array binding signal (z-score),[23],-0.298
same,glycan array binding signal (z-score),[24],-0.305
same,glycan array binding signal (z-score),[25],-0.307
same,glycan array binding signal (z-score),[26],-0.307
same,glycan array binding signal (z-score),[27],-0.307
same,glycan array binding signal (z-score),[28],-0.309
same,glycan array binding signal (z-score),[29],-0.303
same,glycan array binding signal (z-score),Neu5Ac(b2-6)GalNAc,-0.31
same,glycan array binding signal (z-score),[30],-0.312
same,glycan array binding signal (z-score),[31],-0.309
same,glycan array binding signal (z-score),[32],-0.308
same,glycan array binding signal (z-score),[33],-0.305
same,glycan array binding signal (z-score),[34],-0.309
same,glycan array binding signal (z-score),Neu5Gc(a2-3)Gal(b1-4)Glc,-0.305
same,glycan array binding signal (z-score),[35],-0.312
same,glycan array binding signal (z-score),[36],-0.307
same,glycan array binding signal (z-score),[37],-0.308
same,glycan array binding signal (z-score),Neu5Gc(a2-6)GalNAc,-0.309
same,glycan array binding signal (z-score),[38],-0.308
